Measurements from paper PMC4336329 (PLoS ONE, 2015).
Among all 310,000 compounds or so, about 14,000 (4.5%) showed an effect of 50% or more. Effects have a minus sign here. The list shows a part of the results.

molecular target: human ether-à-go-go-related gene (hERG) potassium channel (human, UniProt Q12809); experiment: primary screen, population patch clamp on CHO cells stably expressing hERG
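Also: peak tail current of the secondary pulse compared with the same well before compound.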

human ether-à-go-go-related gene (hERG) potassium channel, sequence (Q12809 whole entry, looked up): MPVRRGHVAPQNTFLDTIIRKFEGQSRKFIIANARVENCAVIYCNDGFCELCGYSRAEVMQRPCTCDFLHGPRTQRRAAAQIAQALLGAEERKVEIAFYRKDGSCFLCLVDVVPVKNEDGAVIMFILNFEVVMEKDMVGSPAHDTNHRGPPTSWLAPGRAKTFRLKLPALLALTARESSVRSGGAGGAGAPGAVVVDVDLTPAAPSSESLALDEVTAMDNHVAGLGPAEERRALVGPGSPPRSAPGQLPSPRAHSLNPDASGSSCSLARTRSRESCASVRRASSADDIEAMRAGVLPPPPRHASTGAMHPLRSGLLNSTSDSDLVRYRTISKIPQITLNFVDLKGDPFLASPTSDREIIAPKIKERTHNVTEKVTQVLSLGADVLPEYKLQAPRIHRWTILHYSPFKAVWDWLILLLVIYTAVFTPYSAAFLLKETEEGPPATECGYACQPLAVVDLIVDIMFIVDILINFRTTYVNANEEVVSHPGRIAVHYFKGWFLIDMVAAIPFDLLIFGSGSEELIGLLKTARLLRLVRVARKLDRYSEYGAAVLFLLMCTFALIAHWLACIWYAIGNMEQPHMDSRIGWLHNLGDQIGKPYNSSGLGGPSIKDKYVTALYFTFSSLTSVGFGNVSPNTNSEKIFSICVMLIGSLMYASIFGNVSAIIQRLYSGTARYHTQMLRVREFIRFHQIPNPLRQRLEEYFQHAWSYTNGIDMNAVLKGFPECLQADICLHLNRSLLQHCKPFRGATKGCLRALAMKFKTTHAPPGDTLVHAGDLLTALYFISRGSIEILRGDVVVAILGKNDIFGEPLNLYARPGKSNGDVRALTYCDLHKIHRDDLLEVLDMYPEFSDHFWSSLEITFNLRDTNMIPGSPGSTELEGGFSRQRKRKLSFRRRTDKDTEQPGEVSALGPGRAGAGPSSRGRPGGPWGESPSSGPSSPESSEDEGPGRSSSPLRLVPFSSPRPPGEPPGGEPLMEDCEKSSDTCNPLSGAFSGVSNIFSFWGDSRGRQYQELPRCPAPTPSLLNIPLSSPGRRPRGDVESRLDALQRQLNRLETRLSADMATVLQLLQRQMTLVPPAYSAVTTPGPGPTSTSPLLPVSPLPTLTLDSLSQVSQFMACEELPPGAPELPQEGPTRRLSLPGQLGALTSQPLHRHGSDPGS

Row | SMILES | hERG current change (%, negative = inhibition) at 10uM [%]
1 | O=[N+]([O-])c1ccc(CSc2nnc3ccccn23)cc1 | -57.2
2 | O=C(c1ccc(CSc2ccc(Cl)cc2)cc1)N1CCCC1 | 0.0198
3 | O=C(CCc1nnc2n(Cc3ccc(Cl)cc3)c(=O)c3ccccc3n12)NCCCN1CCOCC1 | -59.9
4 | Cc1ccc(NC(=O)CSC2=C(C#N)C(c3ccco3)C3=C(CC(C)(C)CC3=O)N2)cc1 (stereo not shown) | 20.4
5 | CCCCN(C(=O)CN1C(=O)C2CC=CCC2C1=O)c1c(N)n(CCC)c(=O)[nH]c1=O (stereo not shown) | 4.14
6 | Cc1ccc(/C(O)=C2\C(=O)C(=O)N(Cc3cccnc3)C2c2ccccc2[N+](=O)[O-])cc1 (stereo not shown) | 3.46
7 | COc1c(C)cccc1C(=O)Nc1ccc(CN2CCOCC2)cc1 | 0.813
8 | COC(=O)c1c(NC(=O)Cn2cnc([N+](=O)[O-])n2)sc2c1CCC(C)C2 (stereo not shown) | 7.13
9 | CCOC(=O)c1c(NC(=O)C2C3CCC(O3)C2C(=O)O)sc(C)c1-c1ccc(F)cc1 (stereo not shown) | -3.23
10 | COc1cc(/C=N/N=C(/N)c2nonc2N)cc(Br)c1OCc1cccc(C)c1 | -6.25
11 | O=C(NC(NC(=S)N1CCOCC1)C(Cl)(Cl)Cl)c1cccc2ccccc12 (stereo not shown) | -13.9
12 | COc1ccc(C(NC(=O)c2cc(OC)ccc2OC)c2ccccc2)cc1 (stereo not shown) | -18.6
13 | Cc1cc(C)n(CC(=O)NCc2cc(-c3nn(C)c(=O)c4ccccc34)ccc2C)n1 | -10.7
14 | C=CCNc1nc(-c2c(C)nc3ncccn23)cs1 | -0.737
15 | Clc1ccccc1Cn1nnc(-c2ccccc2)n1 | 4.02
16 | COc1ccc(CCN2CCCC(CN(C)Cc3cccc(OC)c3)C2)cc1 (stereo not shown) | -60.6
17 | NS(=O)(=O)c1ccc(NC(=S)NCc2cccs2)cc1 | 13.4
18 | CCCOc1ccc(/C=N/NC(=O)C(=O)Nc2ccccn2)cc1 | 0.313
19 | CCOC(=O)c1ccc(N2CCOCC2)c(NS(=O)(=O)c2ccc(F)cc2)c1 | 10.6
20 | NC(CO)(CO)CO.Nc1ncnc2c1ncn2[C@@H]1O[C@H](COP(=O)(O)OP(=O)(O)OP(=O)(O)O)[C@@H](O)[C@H]1O.O | 2.24
21 | Nc1ccc(S(=O)(=O)Nc2ccc(Cl)nn2)cc1 | 4.14
22 | O=C(CCl)c1ccc2c(c1)CCN2C(=O)C1CC1 | -25.5

Row | SMILES | hERG current change (%, negative = inhibition) at 10uM [%]
23 | COc1ccc(C(=O)COC(=O)CN2C(=O)NC3(CC(C)CC(C)(C)C3)C2=O)c(OC)c1 (stereo not shown) | -31.5
24 | Cc1ccccc1OCCc1c(C)[nH]c(=S)[nH]c1=O | 15.8
25 | CSC1=C(C#N)C(c2sccc2C)CC(=O)N1 (stereo not shown) | 18
26 | CC(C)COC(=O)c1cc(=O)[nH]c2ccccc12 | -11.3
27 | Cc1ccc(S(=O)(=O)N(CC(O)CN2C(=O)NC(C)(C)C2=O)c2ccccc2)cc1 (stereo not shown) | -37.7
28 | Cc1ccc(CNC(=O)c2ccc(CS(=O)(=O)c3ccccc3C)o2)cc1 | -25.3
29 | CCOC(=O)c1c(/N=C/C2=C(O)CC(C)(C)CC2=O)sc2c1CCCC2 | 11.4
30 | CC(C)CNS(=O)(=O)c1ccc(OCC(=O)Nc2ccc3c(c2)OCO3)c(Cl)c1 | 2.71
31 | Cc1ccc(C(=O)N/N=C2\CCc3ccccc32)c(C)c1 | 3.72
32 | CCOC(=O)N1C=CC=C[C@@H]2[C@@H](N3C(=O)c4ccccc4C3=O)C(=O)N21 | 0.941
33 | CC(C)C(OC(=O)c1ccc(Cl)nc1)C(=O)NC1CCCCC1 (stereo not shown) | 14.3
34 | CCn1c(SCc2ccc(Cl)c(Cl)c2)nnc1C(C)NC(=O)c1ccc(OC)cc1 (stereo not shown) | 10
35 | CC(OCc1ccccc1)C(NC(=O)OC(C)(C)C)C(=O)NCC1CCCO1 (stereo not shown) | -7.39
36 | Nc1cc(-c2ccc(Cl)cc2)nn1-c1ccccc1 | 12.7
37 | CCOc1ccc2nc3cc(NCc4ccc(OC)cc4)ccc3c(N)c2c1 | -17.7
38 | CC(C)OCCCNC(=O)CN1C(=O)CSc2ccc(S(=O)(=O)N3CCCCC3)cc21 | 0.76
39 | O=C(CNC(=O)c1cccc(OC(F)F)c1)OCn1nnc2ccccc2c1=O | -2.85
40 | CC(C)Oc1ccc(/C(O)=C2/C(=O)C(=O)N(CCCn3ccnc3)C2c2cccnc2)cc1 (stereo not shown) | 13.6
41 | CC(C)Cc1ccc(C(=O)Nc2ccc(Cc3ccncc3)cc2)o1 | -57.6
42 | Cc1csc2ncnc(N3CCN(C(=S)Nc4ccc(F)cc4F)CC3)c12 | -30
43 | N#CCCN(C(=O)COC(=O)CCc1nc2ccccc2c(=O)[nH]1)c1ccc(F)cc1 | 1.57
